According to PubChem BioAssay AID1508624 (National Center for Advancing Translational Sciences (NCATS), 2021):
In all, about 48,000 compounds went through this assay and about 120 (0.25%) were called active. Inconclusive results (about 4%) are left out. The call rests on the fitted dose curve; in most records, active means well fitted activation curve with a large enough effect; inconclusive means small, poorly fitted or top-dose-only effect, or another doubt; inactive means no such curve, though single readings can be large or run the other way. This is one part of the list.

test: Primary qHTS for Identification of Small Molecule Activators of Huntingtin-Antisense Promoter Activity; conditions: HEK293 HTT-AS promoter firefly luciferase reporter (activity 0% = vehicle and -100% = no light), 24 h; series mostly up to 57.5 µM; activity change, positive = activation: at the top concentration; further: nearly all actives have a fitted effect of over 55% in size
Outline: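 HEK293 Fluc reporter, 2,500 cells/well, 24 h pre-culture; cpds up to 57.5 uM final, 24 h 37 degrees C; Dual-Glo, 10 min RT; normalized vehicle = 0%, zero RLU = -100%.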

SMILES	activity change, positive = activation
CCCn1c(CCC(=O)Nc2cc(Cl)c(OC)cc2OC)nc2cccnc21	inactive: -7.43%
COc1ccc(NC(=O)CC2C(=O)N(c3ccc(C)cc3)C(=O)N2C2CCCCC2)cc1 (centres undefined)	inactive: -8.46%
O=C(CCSCc1ccccc1Cl)N1CCN(c2cccc(Cl)c2)CC1	inactive: 17.8%
CCn1nc(-c2ccccc2)c(-c2ccccc2)c(C(=O)Nc2nc(C)c(C(=O)N(C)C)s2)c1=O	inactive: -7.16%
O=C(O)C1CCC1	inactive: -2.74%
CCc1nc2cccnc2n1-c1ccc(CC(=O)Nc2ccc(C)cc2)cc1	inactive: -16.1%
O=C(Cn1c(=O)n(-c2ccccc2Cl)c(=O)c2sc3ccccc3c21)N1CCCC1	inactive: -20.9%
CCOc1ccc(CNC(=O)c2cnc3sc(N(CC)CC)nn3c2=O)cc1OC	inactive: -16.7%
CC(NC(=O)c1ccc2c(c1)N(Cc1ccc(Cl)cc1)C(=O)c1ccccc1S2(=O)=O)c1ccccc1 (centres undefined)	inactive: -14.3%
CCOc1ccc(CCNC(=O)Cn2nc(CC)n3c(cc4sc(CC)cc43)c2=O)cc1OCC	inactive: -10.3%
CCCCCn1c(=N)c(S(=O)(=O)c2ccccc2)cc2c(=O)n3ccccc3nc21	inactive: 1.23%
CCn1c(=O)c2cc(C(=O)NC3CCCCCC3)sc2c2ccccc21	inactive: -27.2%
O=c1oc2c(CN3CCOCC3)c(O)ccc2cc1-c1ccc(Cl)cc1	inactive: 26.2%
CCOC(=O)c1sc(NC(=O)c2nc3ncccn3n2)c(C(=O)OC)c1C	inactive: -3.02%
O=S(=O)(NCc1ccccc1)c1ccc(-c2cnc(C3CC3)o2)cc1	inactive: -23.8%
CCc1ccc(CSc2nc(-c3ccc(OC)cc3)nc3c2Cc2c(CO)cnc(C)c2O3)cc1	inactive: -14.6%
COc1ccc(CNC(=O)CN(c2ccccc2OC)S(=O)(=O)c2ccc(C)cc2)cc1	inactive: -11.1%
COc1ccc(CNC(=O)CSc2nc3ccsc3c(=O)n2Cc2ccccc2Cl)cc1	inactive: -34.7%
CC(=O)Nc1ccc(O)cc1	inactive
CCc1ccc(N2C(=O)CC(c3cc(OC)ccc3OC)C3=C2COC3=O)cc1 (centres undefined)	inactive: -24.3%

SMILES	activity change, positive = activation
O=C(Nc1ccc2oc(-c3cccnc3)nc2c1)c1ccc(-c2ccc(Cl)cc2)o1	inactive: 7.58%
Cc1ccc(NC(=O)Cn2ncn3c(cc4ccccc43)c2=O)c(C)c1	inactive: -15.6%
CCOc1ccc(C2CC(=O)n3nc(-c4ccc(C)cc4)nc3S2)cc1 (centres undefined)	inactive: -5.38%
COc1ccccc1CNC(=O)Cc1csc2nc(-c3ccc(Cl)cc3)cn12	inactive: -12.9%
CCOc1cc(CNC(=O)c2ccc(C)c(NC(=O)c3nsc4ccccc34)c2)ccc1OC	inactive: 7.11%
CCCn1c(SCC(O)c2cccc(OC)c2)nc2ccccc21 (centres undefined)	inactive: -20.3%
COc1ccc(CNC(=O)c2nnn(CC(=O)Nc3cc(C)cc(C)c3)c2N)cc1	inactive: -19.5%
COc1ccccc1C(=O)NC1(C(F)(F)F)C(=O)Nc2c1c(=O)[nH]c(=O)n2CCc1ccccc1 (centres undefined)	inactive: -4.75%
Cc1ccc(C)c(CN2CCCN(Cc3cc(C)ccc3C)S2(=O)=O)c1	inactive: -7.98%
COC(=O)c1ccc(-n2c(/C=C\c3cccc(Br)c3)nc3ccccc3c2=O)cc1	inactive: -20.5%
Cc1cnc(NS(=O)(=O)c2ccc(N)cc2)nc1	inactive: -9.11%
CCc1nc2ccccc2n1CCCCOc1ccccc1C	inactive: -49.3%
Cc1ccc(S(=O)(=O)C(CNC(=O)C(=O)NCCc2ccccc2)c2ccco2)cc1 (centres undefined)	inactive: -15.5%
COc1ccc(S(=O)(=O)c2cn(Cc3ccccc3)c3cc(N4CCCC4)c(F)cc3c2=O)cc1	inactive: -13.4%
COc1ccc(CCNC(=O)CCCCn2c(=O)c3ccccc3n(CC(=O)Nc3ccccc3C)c2=O)cc1OC	inactive: -4.98%
CCN1C(C(=O)c2ccccc2)=C(OC(=O)C(C)C)c2ccccc2S1(=O)=O	inactive: -26.8%
O=C(CCNS(=O)(=O)c1ccc2c(c1)CCN2C(=O)C1CC1)N1CCN(c2ccc(F)cc2)CC1	inactive: -44.7%
CCc1ccccc1NC(=O)Cn1c(=O)nc(-c2ccccc2)c2ccccc21	inactive: -10.1%
COc1ccc(CCNC(=O)CCn2c(=O)c3ccccc3n(Cc3ccc(Cl)cc3)c2=O)cc1OC	inactive: -8.18%
COc1ccc(CNC(=O)C2CCN(c3nc4ccc(C)cc4[nH]3)CC2)cc1	inactive: 0.409%

SMILES	activity change, positive = activation
CCn1c2c(c(=O)n3ncc(C(=O)Nc4cccc(Cl)c4C)c13)CN(Cc1ccc(OC)cc1)CC2	inactive: -13%
CCOC(=O)c1c(C)[nH]c(C)c1S(=O)(=O)N1CCC(C(=O)NCc2ccc(C)cc2)CC1	inactive: -5.94%
CCCC(O)c1nc2ccccc2n1CCCCOc1ccc(OC)cc1 (centres undefined)	inactive: -36.5%
Cc1cc(C)cc(NC(=O)CSc2nncn3c2cc2occc23)c1	inactive: -33.1%
CC[C@H]1OC(=O)[C@H](C)[C@@H](O[C@H]2C[C@@](C)(OC)[C@@H](O)[C@H](C)O2)[C@H](C)[C@@H](O[C@@H]2O[C@H](C)C[C@H](N(C)C)[C@@H]2O)[C@](C)(OC)C[C@@H](C)C(=O)[C@H](C)[C@@H](O)[C@]1(C)O	inactive: -26.4%
O=C(CC1N=C2c3ccccc3N=C(SCc3ccc(F)cc3)N2C1=O)NCc1cccs1 (centres undefined)	inactive: -14.6%
CCOC(=O)c1scc(-c2ccc(C)cc2)c1S(=O)(=O)Nc1cc(Cl)ccc1OC	inactive: -33.1%
CCn1c(SCC(=O)c2ccc([N+](=O)[O-])cc2)nnc1-c1ccc(Cl)cc1	inactive: 8.33%
COc1cccc(CNC(=O)Cn2cc3c(n2)-c2c(oc(C(=O)N4CCCC4)c2C)CC3)c1	inactive: -32%
CCc1ccc(NC(=O)Cn2ncc3c4ccccc4n(C)c3c2=O)cc1	inactive: -3.04%
CCCCn1cc(S(=O)(=O)c2ccc(OC)cc2)c(=O)c2cc(F)c(F)cc21	inactive: -12.3%
CCN(CC)C(=O)c1sc2c(c1C)c(=O)n(-c1ccccc1)c(=O)n2Cc1cc(=O)n2ccccc2n1	inactive: -2.19%
Clc1cccc(-c2csc(-c3nc(-c4ccc(Br)s4)cs3)n2)c1	inactive: -5.23%
COC(=O)Cn1c(CN2CCN(c3ccc(OC)cc3)CC2)nc2c1c(=O)[nH]c(=O)n2C	inactive: -13%
CCOC(=O)c1c(S(=O)(=O)NCC(=O)Nc2cccc(CC)c2)c(C)n(C)c1C	inactive: -14.5%
CCOc1ccc(NC(=O)c2cc(S(=O)(=O)NC3CCCC3)ccc2F)cc1	inactive: -21.6%
Cc1ccc(OCc2nc(-c3ccc(C(=O)N4CCN(c5ccc(Cl)cc5)CC4)cc3)oc2C)cc1	inactive: -17.9%
CC(C)CCNC(=O)CSc1c2c(nc3ccc(Cl)cc13)CCCC2	inactive: -47.4%
CCOc1ccc(CNC(=O)C2CCCN(S(=O)(=O)c3ccc4c(c3)CCCC(=O)N4)C2)cc1 (centres undefined)	inactive: -31.9%
